The record followed here is a collection of fitness landscapes (doi:10.1126/science.1257360).

To fix the notation:
B1: PhoQ; a variant is named by its letters at X, in order, P23837 (parent)
chain: MKKLLRLFFPLSLRVRFLLATAAVVLVLSLAYGMVALIGYSVSFDKTTFRLLRGESNLFYTLAKWENNKLHVELPENIDKQSPTMTLIYDENGQLLWAQRDVPWLMKMIQPDWLKSNGFHEIEADVNDTSLLLSGDHSIQQQLQEVREDDDDAEMTHSVAVNVYPATSRMPKLTIVVVDTIPVELKSSYMVWSWFIYVLSANLLLVIPLLWVAAWWSLRPIEALAKEVRELEEHNRELLNPATTRELTSLVRNLNRLLKSERERYDKYRTTLTDLTHSLKTPLXXLQXXLRSLRSEKMSVSDAEPVMLEQISRISQQIGYYLHRASMRGGTLLSRELHPVAPLLDNLTSALNKVYQRKGVNISLDISPEISFVGEQNDFVEVMGNVLDNACKYCLEFVEISARQTDEHLYIVVEDDGPGIPLSKREVIFDRGQRVDTLRPGQGVGLAVAREITEQYEGKIVAGESMLGGARMEVIFGRQHSAPKDE

The list shows a part of the results. Where only a bound is given, the exact number is not on record here.

In this test the parent is B1. The test can be described thus: enrichment ratio after two sorts for PhoP signalling (ratio (wild type AVST 3.29)); higher = more functional. Conditions: with PhoP (E. coli).
For the variant RRNR, the enrichment ratio is at most 0.25.
To GTNF belongs at most 0.25; to LYCS, at most 0.25; to MPKW, at most 0.25.
For the variant SCSK, the enrichment ratio is 14.3.
For PTCS, the enrichment ratio was at most 0.25.
To WMLM belongs at most 0.25; to AQEG, at most 0.25; to FLWA, at most 0.25.
Next, PICS: at most 0.25.
For the variant NPAD, the enrichment ratio was at most 0.25.
To GRTE belongs at most 0.25.
Next, SCDG: at most 0.25; SLLR: 1.56; IGCE: at most 0.25.
Next, EFKW: at most 0.25; ESTS: at most 0.25; EPHH: at most 0.25.
In the case of VRDR, the enrichment ratio was at most 0.25.
Regarding ECTA, the enrichment ratio is at most 0.25.
For the variant NTQW, the enrichment ratio is at most 0.25.
With ADKY, the enrichment ratio was at most 0.25.
Take DQMC: the enrichment ratio is at most 0.25.
Next, KAYL: at most 0.25; LSIK: at most 0.25; MGNQ: at most 0.25.
Next, TMWG: at most 0.25; YIHA: at most 0.25; FPME: at most 0.25.
Next, TWVL: at most 0.25.
Regarding IFFV, the enrichment ratio was at most 0.25.
Next, SLCV: 7.13; DQHD: at most 0.25; HQGG: at most 0.25.
Next, FQSE: at most 0.25.
Next, KVTM: at most 0.25.
Turning to PTKN, the enrichment ratio is at most 0.25.
Next, WVLQ: at most 0.25; AYGA: at most 0.25; EVGT: at most 0.25.
Next, DSAP: at most 0.25; EFEP: at most 0.25.
With NENR, the enrichment ratio is at most 0.25.
To SGLA belongs 8.41; to AGVW, at most 0.25.
Next, YTKP: at most 0.25; TWCT: at most 0.25; NTVF: at most 0.25.
To SKSA belongs at most 0.25; to LQHH, at most 0.25.
In the case of EMHV, the enrichment ratio is at most 0.25.
LSLA: the enrichment ratio is 0.36.
To QGRE belongs at most 0.25; to FDQA, at most 0.25.
Next, YKEG: at most 0.25.
Next, QEMI: 65.2.
Regarding KAIK, the enrichment ratio was at most 0.25.
To RLLV belongs at most 0.25.
For the variant KTVT, the enrichment ratio is at most 0.25.
To FLAG belongs at most 0.25; to LCRK, at most 0.25; to IANE, at most 0.25.
To FRYL belongs at most 0.25; to QVNW, at most 0.25.
Next, NWPF: at most 0.25; QRNI: at most 0.25.
QGYC: the enrichment ratio came out at 13.7.
Next, GFMD: at most 0.25; FTHW: at most 0.25.
Next, MVNW: at most 0.25; LTFS: at most 0.25.
Next, EHPH: at most 0.25.
On to VLQQ, for which the enrichment ratio was at most 0.25.
Next, DDLD: at most 0.25; LTHC: at most 0.25.
Next, PNTH: at most 0.25; FWHF: at most 0.25.
To WGGR belongs at most 0.25; to NGDS, at most 0.25; to INVQ, at most 0.25.
TGMR: the enrichment ratio is 1.12.
Take VDCL: the enrichment ratio is at most 0.25.
For the variant KKMA, the enrichment ratio was at most 0.25.
Next, PMHW: at most 0.25.
To ITYE belongs at most 0.25.
Next, RFYR: at most 0.25; VISI: 2.09; FQEP: at most 0.25.
Regarding VIMT, the enrichment ratio was at most 0.25.
To QMGF belongs 6.84.
Turning to QEPY, the enrichment ratio was at most 0.25.
On to MMYP, for which the enrichment ratio was at most 0.25.
To WCPA belongs at most 0.25; to ECKT, at most 0.25; to SLYW, at most 0.25.
Next, FHQI: at most 0.25.
With RQWI, the enrichment ratio was at most 0.25.
Next, HLTN: at most 0.25.
Next, DTEH: at most 0.25.
Next, DPNQ: at most 0.25; EAMI: at most 0.25.
Take HYPT: the enrichment ratio was at most 0.25.
Next, MPRW: at most 0.25.
To RYSR belongs at most 0.25; to AGTN, at most 0.25.
Next, GTDG: at most 0.25.
For KPNT, the enrichment ratio was at most 0.25.
As for VVIF, the enrichment ratio was at most 0.25.
Next, DSDQ: at most 0.25; DQQI: at most 0.25; PATM: at most 0.25.
To ASFQ belongs 1.8; to NACS, at most 0.25.
Next, GTFD: at most 0.25; LFRL: at most 0.25; ECHR: at most 0.25.
In the case of QKAT, the enrichment ratio was at most 0.25.
To DEKR belongs at most 0.25; to YGYD, at most 0.25; to NDTC, at most 0.25.
PVGD: the enrichment ratio is at most 0.25.
Next, QPGC: at most 0.25; PADD: at most 0.25; PPGT: at most 0.25.
To GTHF belongs at most 0.25.
Next, RIWS: at most 0.25; DRHG: at most 0.25; YRHI: at most 0.25.
In the case of GPCK, the enrichment ratio was at most 0.25.
In the case of AWEF, the enrichment ratio is at most 0.25.
In the case of LADC, the enrichment ratio is at most 0.25.
Next, QDPY: at most 0.25; ICTA: at most 0.25.
QVTC: the enrichment ratio was at most 0.25.
To SKYT belongs at most 0.25; to MLAD, at most 0.25; to LSPD, at most 0.25.
Next, ADFT: at most 0.25; RDPT: at most 0.25.
Next, VPLH: at most 0.25; TART: at most 0.25.
Consider AVPG, for which the enrichment ratio is at most 0.25.
To PWVF belongs at most 0.25; to LDAM, at most 0.25; to PISH, at most 0.25.
As to FQKQ, the enrichment ratio is at most 0.25.
Next, DSPR: at most 0.25; AHCG: 15.3; LWPW: at most 0.25.
To ETVH belongs at most 0.25; to ATKG, at most 0.25.
As for LGID, the enrichment ratio was at most 0.25.
Next, MNSG: at most 0.25.
